The antibiotic and cytotoxicity screens of Wong et al. (2023)
The other results are listed elsewhere or left out.

Each molecule was assayed on HepG2 (assay: cytotoxicity call (relative viability < 0.9)). Settings: 10 µM.

Compound	cytotoxicity call
C[C@@H]1CN([C@H](C)CO)C(=O)c2cc(NC(=O)Nc3ccccc3)ccc2O[C@H]1CN(C)CC1CCCCC1	inactive
C[C@@H]1CN([C@@H](C)CO)C(=O)c2cc(NC(=O)NC3CCCCC3)ccc2O[C@@H](C)CCCCO[C@H]1CN(C)Cc1ccc(C(=O)O)cc1	inactive
C[C@@H]1CN([C@@H](C)CO)C(=O)c2cc(NS(=O)(=O)c3cccs3)ccc2O[C@@H]1CN(C)Cc1ccc(Oc2ccccc2)cc1	inactive
C=CCC[C@H](Cc1ccc(F)cc1)C(=O)OC[C@H]1CCCN1C(=O)[C@H](CC=C)CC(=O)N(CCO)Cc1ccccc1	inactive
C[C@H]1CN([C@@H](C)CO)C(=O)c2cccc(NC(=O)C3CCCCC3)c2O[C@H]1CN(C)S(=O)(=O)c1cn(C)cn1	inactive
C[C@@H]1CN([C@@H](C)CO)C(=O)c2cc(NC(=O)Cn3cnnn3)ccc2O[C@@H]1CN(C)C(=O)Nc1ccc(F)cc1	inactive
COCc1cn([C@H]2C[C@H](O)[C@@H](CO)O2)c(=O)[nH]c1=O	inactive
O=C(N/N=C/[C@@H](O)[C@@H](O)[C@H](O)[C@H](O)CO)c1ccccn1	inactive
COc1ccc(NC(=O)Nc2ccc3c(c2)[C@H]2C[C@@H](CC(=O)N4CCN(C)CC4)O[C@@H](CO)[C@H]2O3)cc1	inactive
C[C@H](CO)N1C[C@H](C)[C@H](CN(C)CC2CCCCC2)OCCCC[C@H](C)Oc2ccc(NC(=O)Nc3ccccc3)cc2C1=O	active

These molecules were tested on S. aureus RN4220 (assay: growth inhibition call (relative growth <= 0.2)). Settings: 50 µM.

Compound	growth inhibition call
O=C(C[C@@H]1CC[C@@H](NS(=O)(=O)c2ccc(F)cc2)[C@H](CO)O1)N1CCC(Cc2ccccc2)CC1	inactive
C[C@@H]1CCCCO[C@@H](CN(C)Cc2ccccc2)[C@@H](C)CN([C@H](C)CO)C(=O)c2cc(NC(=O)Nc3ccc(C(F)(F)F)cc3)ccc2O1	inactive
CCOC(=O)c1c(CNCCN(CC)CC)n(-c2ccccc2)c2cc(Br)c(OC)cc12	inactive
Cc1noc(C)c1NC(=O)Nc1ccc2c(c1)C(=O)N([C@@H](C)CO)C[C@@H](C)[C@H](CN(C)C(=O)C1CCCCC1)OCCCC[C@H](C)O2	inactive
COCCOC(=O)N1C(=O)[C@@]2(c3cc(C#Cc4ccc(OC)cc4)ccc31)[C@H](C(=O)N1CCc3cc(OC)c(OC)cc3C1)[C@H]1C(=O)O[C@H](c3ccccc3)[C@H](c3ccccc3)N1[C@@H]2c1ccc(O)cc1	inactive
CCOC(=O)N(C)C[C@@H]1OCc2cn(nn2)CCCC(=O)N([C@H](C)CO)C[C@H]1C	inactive
C[C@@H]1CCCCO[C@@H](CN(C)S(=O)(=O)c2cccs2)[C@H](C)CN([C@H](C)CO)C(=O)c2cc(NC(=O)Nc3cccc4ccccc34)ccc2O1	inactive
COCCNC(=O)C[C@H]1CC[C@@H]2[C@H](COC[C@@H](O)CN2S(=O)(=O)c2ccccc2C)O1	inactive
COC(=O)[C@@H]1[C@@H](CO)[C@@H]2Cn3c(ccc(-c4ccccc4)c3=O)[C@@H]2N1S(C)(=O)=O	inactive
C[C@@H]1CN([C@@H](C)CO)C(=O)c2cc(NC(=O)Cc3ccccc3)ccc2O[C@@H]1CN(C)Cc1ccc(C(=O)Nc2ccccc2N)cc1	inactive
CCOC(=O)[C@H]1C/C=C/C[C@H](C(=O)OCC)C(=O)O[C@H]2[C@@H](OC)O[C@H](COC(=O)NCCCCCC(=O)NO)[C@@H](OC(=O)Nc3ccccc3)[C@@H]2OC1=O	inactive
Brc1ccc(-c2cc3n(c2)CCc2ccccc2-3)cc1	inactive
C[C@@H]1CN([C@H](C)CO)C(=O)Cc2cc(NS(C)(=O)=O)ccc2O[C@H]1CN(C)S(=O)(=O)c1cn(C)cn1	inactive
C[C@@H]1CN([C@H](C)CO)C(=O)c2cc(NC(=O)C3CCCCC3)ccc2O[C@H]1CN(C)C(=O)Nc1ccc(C(F)(F)F)cc1	inactive
Cc1ccc(S(=O)(=O)Nc2ccc3c(c2)CC(=O)N([C@@H](C)CO)C[C@H](C)[C@H](CN(C)CC2CC2)O3)cc1	inactive
CNC[C@@H]1Oc2cc(C#CCN(C)C)ccc2S(=O)(=O)N([C@@H](C)CO)C[C@@H]1C	inactive
C[C@H](CO)N1C[C@H](C)[C@H](CN(C)C(=O)Nc2ccc3c(c2)OCO3)Oc2ccc(NC(=O)c3ccncc3)cc2CC1=O	inactive
C[C@H](CO)N1C[C@H](C)[C@@H](CN(C)C)OCCCC[C@H](C)Oc2ccc(NS(=O)(=O)c3cn(C)cn3)cc2C1=O	inactive
COc1ccc(CN(C)C[C@H]2OCCCC[C@@H](C)Oc3ccc(NC(=O)CCCCCC(=O)Nc4ccccc4N)cc3C(=O)N([C@H](C)CO)C[C@@H]2C)cc1	inactive
C[C@@H]1CN([C@H](C)CO)C(=O)c2cccc(NC(=O)c3ccc(-c4nccs4)cc3)c2O[C@@H]1CN(C)Cc1ccc(C(=O)Nc2ccccc2N)cc1	inactive

Compound	growth inhibition call
O=C(C[C@H]1CC[C@@H]2[C@H](COC[C@@H](O)CN2S(=O)(=O)c2ccccc2)O1)N1CCOCC1	inactive
COc1cccc(S(=O)(=O)N2C[C@H](O)COC[C@@H]3O[C@@H](CC(=O)N4CCN(c5ccccc5)CC4)CC[C@H]32)c1	inactive
CC(=O)N1CCC[C@H]1C(=O)O	inactive
O=C(C[C@H]1CC[C@@H]2[C@H](COC[C@H](O)CN2C(=O)c2cccnc2)O1)NCC1CC1	inactive
C[C@@H](O)Cn1cnc2c1c(=O)n(C)c(=O)n2C	inactive
C[C@H]1CN([C@@H](C)CO)C(=O)c2cccc(NC(=O)C3CCOCC3)c2O[C@@H]1CN(C)Cc1ccncc1	inactive
Cc1noc(C)c1NC(=O)Nc1ccc2c(c1)C(=O)N([C@@H](C)CO)C[C@@H](C)[C@H](CN(C)S(=O)(=O)c1ccccc1)OCCCC[C@H](C)O2	inactive
CN1CCN(CCO)C(=O)C12CCN([C@H]1CCOC1)CC2	inactive
Cc1cc(C(=O)Nc2cccc3c2O[C@@H](CN(C)S(=O)(=O)c2ccc(F)cc2)[C@@H](C)CN([C@H](C)CO)C3=O)n(C)n1	inactive
COc1ccc2c3c([nH]c2c1)[C@H](CO)N(C[C@]13CCN(CC1)C(=O)Nc1ccccc1)C(=O)Nc1ccc(cc1)F	inactive
C[C@@H]1CN([C@H](C)CO)C(=O)c2cc(NC(=O)Nc3ccccc3)ccc2O[C@H]1CN(C)CC1CCCCC1	inactive
C[C@@H]1CN([C@@H](C)CO)C(=O)c2cc(NC(=O)NC3CCCCC3)ccc2O[C@@H](C)CCCCO[C@H]1CN(C)Cc1ccc(C(=O)O)cc1	inactive
C[C@@H]1CN([C@@H](C)CO)C(=O)c2cc(NS(=O)(=O)c3cccs3)ccc2O[C@@H]1CN(C)Cc1ccc(Oc2ccccc2)cc1	inactive
C=CCC[C@H](Cc1ccc(F)cc1)C(=O)OC[C@H]1CCCN1C(=O)[C@H](CC=C)CC(=O)N(CCO)Cc1ccccc1	inactive
C[C@H]1CN([C@@H](C)CO)C(=O)c2cccc(NC(=O)C3CCCCC3)c2O[C@H]1CN(C)S(=O)(=O)c1cn(C)cn1	inactive
C[C@@H]1CN([C@@H](C)CO)C(=O)c2cc(NC(=O)Cn3cnnn3)ccc2O[C@@H]1CN(C)C(=O)Nc1ccc(F)cc1	inactive
COCc1cn([C@H]2C[C@H](O)[C@@H](CO)O2)c(=O)[nH]c1=O	inactive
O=C(N/N=C/[C@@H](O)[C@@H](O)[C@H](O)[C@H](O)CO)c1ccccn1	inactive
COc1ccc(NC(=O)Nc2ccc3c(c2)[C@H]2C[C@@H](CC(=O)N4CCN(C)CC4)O[C@@H](CO)[C@H]2O3)cc1	inactive
C[C@H](CO)N1C[C@H](C)[C@H](CN(C)CC2CCCCC2)OCCCC[C@H](C)Oc2ccc(NC(=O)Nc3ccccc3)cc2C1=O	inactive
